Data reported in PMC4336329 (PLoS ONE, 2015).
The whole screen tested about 310,000 compounds, of which about 14,000 (4.5%) showed an effect of 50% or more. The effect is printed as a negative number. This is one part of the list.

biological target: human ether-à-go-go-related gene (hERG) potassium channel (human, UniProt Q12809); assay: primary screen, population patch clamp on CHO cells stably expressing hERG
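Also: peak tail current of the secondary pulse compared with the same well before compound.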

Chain of human ether-à-go-go-related gene (hERG) potassium channel (Q12809 whole entry, looked up): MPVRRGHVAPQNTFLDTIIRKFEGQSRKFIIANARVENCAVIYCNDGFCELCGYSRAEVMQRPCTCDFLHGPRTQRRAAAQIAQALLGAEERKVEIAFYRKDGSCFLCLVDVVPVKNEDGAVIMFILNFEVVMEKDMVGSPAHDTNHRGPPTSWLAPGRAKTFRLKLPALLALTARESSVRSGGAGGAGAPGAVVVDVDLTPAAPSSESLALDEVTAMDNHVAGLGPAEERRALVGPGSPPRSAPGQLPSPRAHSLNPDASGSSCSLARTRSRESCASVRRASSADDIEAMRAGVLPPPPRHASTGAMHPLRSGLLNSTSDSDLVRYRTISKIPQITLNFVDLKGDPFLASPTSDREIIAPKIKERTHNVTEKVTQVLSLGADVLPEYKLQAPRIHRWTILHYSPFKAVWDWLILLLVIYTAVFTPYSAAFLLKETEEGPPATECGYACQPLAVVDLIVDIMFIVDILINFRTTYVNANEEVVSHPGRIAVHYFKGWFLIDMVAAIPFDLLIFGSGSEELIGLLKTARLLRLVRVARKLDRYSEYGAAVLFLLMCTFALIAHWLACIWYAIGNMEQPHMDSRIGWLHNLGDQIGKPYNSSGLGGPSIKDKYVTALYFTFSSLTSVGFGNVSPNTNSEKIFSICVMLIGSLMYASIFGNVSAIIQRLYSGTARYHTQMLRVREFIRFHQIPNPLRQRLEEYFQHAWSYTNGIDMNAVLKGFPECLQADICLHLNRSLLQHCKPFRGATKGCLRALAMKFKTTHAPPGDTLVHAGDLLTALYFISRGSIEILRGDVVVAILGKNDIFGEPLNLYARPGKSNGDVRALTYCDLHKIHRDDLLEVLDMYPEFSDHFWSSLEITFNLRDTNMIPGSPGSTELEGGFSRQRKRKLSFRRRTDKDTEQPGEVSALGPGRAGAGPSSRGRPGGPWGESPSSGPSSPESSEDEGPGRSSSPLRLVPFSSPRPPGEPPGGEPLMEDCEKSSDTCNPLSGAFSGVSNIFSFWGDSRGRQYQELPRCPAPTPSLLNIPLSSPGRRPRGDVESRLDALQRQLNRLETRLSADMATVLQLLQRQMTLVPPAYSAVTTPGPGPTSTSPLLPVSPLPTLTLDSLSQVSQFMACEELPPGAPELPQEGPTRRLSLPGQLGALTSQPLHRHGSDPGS

Structure (SMILES)	hERG current change (%, negative = inhibition) at 10uM
O=C(Nc1ccc(C(=O)NCc2ccccc2Cl)cc1)C1=CSCCO1	9.63%
O=C(NC1CCCCCC1)C1CCN(S(=O)(=O)c2ccccc2)CC1	6.07%
CC(C)CNC(=O)C1Nc2ccc(OC(F)(F)F)cc2C2C=CCC12 (stereo not shown)	2.62%
Cn1cc(S(=O)(=O)N2CCOCC2)cc1C(=O)Nc1ccc(Cl)cc1	-51%
Cc1ccccc1-n1c(SC/C(O)=C(\C#N)c2nc3ccccc3[nH]2)nnc1-c1ccncc1	-19.6%
N#CC1=C(N)NC(SCc2ccc(Cl)cc2)=C(C#N)C12CCCCC2	-28.6%
O=C(C1=C(O)C(=O)N(Cc2ccccc2)C1c1ccncc1)c1ccco1 (stereo not shown)	13.5%
COc1ccc(CNC(=O)c2c(-c3cc(Cl)c(OC)c(Cl)c3)noc2C)cc1	-3.56%
CC(C)OCCCNC(=O)CN1C(=O)/C(=C/c2ccccc2)Sc2ccccc21	-29.2%
CCN(CC)CCCNC(=O)CNC(=O)c1nn(-c2ccc(OC)c(OC)c2)c(=O)c2ccccc12	21.6%
Cc1cc(=O)n2nc(N3CCC(C(=O)NCc4cccnc4)CC3)sc2n1	7.16%
O=C(OCCCC(=O)N1CCOCC1)c1ccccc1	6.46%
CCOC(=O)C(=O)N1CCN(c2ccccc2OC)CC1	6.36%
COCCNC(=O)c1onc(CS(=O)(=O)c2cc(C)cc(C)c2)c1C(=O)NCCOC	1.53%
CCOC(=O)C(N)CSC1CC(=O)N(c2ccc(OC)cc2)C1=O.Cl (stereo not shown)	15.8%
NCCCCCNC(=O)/C=N\O	20.1%
CNc1ccc(OC)cc1-n1cnc(-c2ccc([N+](=O)[O-])cc2)c1	-11.1%
Cc1ccccc1OCC(=O)OCC(=O)NCc1ccco1	0.65%
COc1ccc(NC(=O)C2CCCN2c2nn3c(=O)cc(C)nc3s2)cc1 (stereo not shown)	-6.54%
COc1cccc(CN(C(=O)c2ccccc2Cl)C2CCS(=O)(=O)C2)c1 (stereo not shown)	8.05%

Structure (SMILES)	hERG current change (%, negative = inhibition) at 10uM
CC(C)c1nc(SCC(=O)Nc2ccc3c(c2)OCCO3)n[nH]1	-1.52%
CCCCOC(=O)c1ccc(Nc2ncnc3nc[nH]c23)cc1	14.4%
Cc1ccc(S(=O)(=O)N[C@@H](CCCCN)C(=O)CCl)cc1.Cl	-1.37%
CC1CC(C)(C)CC2(C1)NC(=O)N(CC(=O)NCCc1c[nH]c3ccccc13)C2=O (stereo not shown)	9.47%
O=C(Nc1ccccc1)N(O)c1ccc(Cl)cc1	-6.08%
CCC(C)NC(=O)C1CCN(C(=O)c2ccccc2)CC1 (stereo not shown)	4.48%
NS(=O)(=O)c1ccc(Nc2nc(-c3cccnc3)cs2)cc1	-2.97%
COc1ccc(/C=C2\SC(=O)N=C2N)cc1OC	21.7%
CC1(C)CC(=O)c2c(nc3ccccc3c2N)C1	-28.8%
COc1ccc2ncn(-c3ccccc3)c2c1	-7.39%
CCN(CC)C1CCN(C(=O)c2ccc(OC3CCN(Cc4ccccn4)CC3)cc2)C1 (stereo not shown)	15.6%
Cc1ccccc1NC(=O)C1CC(=O)N(Cc2ccccc2)C1 (stereo not shown)	-7.03%
Cc1cc2oc(C(=O)NC3CCS(=O)(=O)C3)cc(=O)c2cc1C (stereo not shown)	15.3%
COc1cccc(/C=N/NC(=O)c2ccc(COc3ccc(Cl)cc3Cl)o2)c1	5.86%
CCCC[n+]1ccn(C2=C([O-])c3ccccc3C(=O)/C2=N\S(=O)(=O)c2ccc(Br)cc2)c1	-20.7%
CCCCCCC(=O)NN1CCN(C)CC1	14.1%
Cc1ccc2c(c1)N(C(=O)CCC(=O)NCc1cccc(F)c1)CCO2	-5.21%
COCCCNC(=O)c1ccc([N+](=O)[O-])cc1	3.66%
CC(C)(C)S(=O)(=O)c1ccc2nc3c(n2c1)CCCC3	4.04%
COc1cc(OC)cc(C(=O)NC(C(=O)N2CCc3ccccc3C2)C(C)C)c1 (stereo not shown)	15%

Structure (SMILES)	hERG current change (%, negative = inhibition) at 10uM
CC(C[N+](C)(C)C)OC(=O)C1(c2ccccc2)CCCC1 (stereo not shown)	24.7%
CCN(CC)C(=O)C1CCCN(C(=O)c2oc3ccc(C)cc3c2C)C1 (stereo not shown)	23.4%
COc1cc(OC)c(OC)cc1CN1CCc2ccccc2C1	-2.84%
CNC(=O)c1cc2c(ccc3ccccc32)oc1=N	-7.23%
Cn1c(=O)cc(SCC(=O)NCCCN2CCOCC2)c2ccc(Cl)cc21	-3.15%
COc1cccc(C(=O)NC2CCN(C(=O)N3c4ccccc4Sc4ccccc43)CC2)c1	-4.78%
COc1cc(CNCC(C)C)c(Br)cc1OCC(=O)NCc1ccccc1	-10.7%
N#Cc1c(N)c2ccccn2c1C(=O)c1ccc(Br)cc1	16%
C#CCOC(=O)C1C2C=CC(C2)C1C(=O)O (stereo not shown)	-0.238%
CCc1cc(=O)oc2cc(OCC(=O)NCC3CCC(C(=O)O)CC3)ccc12 (stereo not shown)	-5.13%
CCOc1ccc(N(CC(=O)NCCSCc2ccc(Cl)cc2)S(C)(=O)=O)cc1	4.71%
CC(C)C[C@@H](CO)N1CCNCCC1=O	23%
Cc1oc2c(Cl)c(Cl)c(O)c(CN(C)C)c2c1C(=O)c1ccc(Cl)cc1	-1.39%
O=C(CSc1nnc(-c2cccs2)n1C1CC1)NCC1CCCO1 (stereo not shown)	-0.536%
CS(=O)(=O)c1ccc(Cl)c(NC(=O)c2cccc(N3C(=O)CCC3=O)c2)c1	0.801%
O=C(Nc1nnc(CCN2CCCCC2)s1)c1ccc(Br)cc1	-51.4%
COc1ccc(NC(=O)C(C)N2C(=O)c3ccccc3C2=O)cc1S(=O)(=O)N1CCOCC1 (stereo not shown)	2.26%
c1ccc(SCCOCCn2cncn2)cc1	9.68%
